Results are given in words; binding and its absence hold for the method and conditions named. Binding seen in cells or lysates may run through a third protein. Some binding calls cover weakened binding; strength is not graded here. Tags and fused reporters may be left off the sequences shown.
T1: chick Wnt8c-HA (chick) (UniProt P51030)
T1 sequence: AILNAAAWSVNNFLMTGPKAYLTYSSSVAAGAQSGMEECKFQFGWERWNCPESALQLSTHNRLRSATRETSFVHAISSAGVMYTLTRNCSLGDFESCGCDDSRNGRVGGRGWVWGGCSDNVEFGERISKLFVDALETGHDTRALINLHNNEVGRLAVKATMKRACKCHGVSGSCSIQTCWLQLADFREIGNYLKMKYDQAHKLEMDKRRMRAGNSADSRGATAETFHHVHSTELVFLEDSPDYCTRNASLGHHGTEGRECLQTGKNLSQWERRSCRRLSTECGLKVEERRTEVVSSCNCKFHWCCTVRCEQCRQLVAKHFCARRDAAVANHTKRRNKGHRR

Chains of the proteins cited; added tags and fusions are not shown. Residues count along the entry.
UniProt Q9EQD0, residues 27-585: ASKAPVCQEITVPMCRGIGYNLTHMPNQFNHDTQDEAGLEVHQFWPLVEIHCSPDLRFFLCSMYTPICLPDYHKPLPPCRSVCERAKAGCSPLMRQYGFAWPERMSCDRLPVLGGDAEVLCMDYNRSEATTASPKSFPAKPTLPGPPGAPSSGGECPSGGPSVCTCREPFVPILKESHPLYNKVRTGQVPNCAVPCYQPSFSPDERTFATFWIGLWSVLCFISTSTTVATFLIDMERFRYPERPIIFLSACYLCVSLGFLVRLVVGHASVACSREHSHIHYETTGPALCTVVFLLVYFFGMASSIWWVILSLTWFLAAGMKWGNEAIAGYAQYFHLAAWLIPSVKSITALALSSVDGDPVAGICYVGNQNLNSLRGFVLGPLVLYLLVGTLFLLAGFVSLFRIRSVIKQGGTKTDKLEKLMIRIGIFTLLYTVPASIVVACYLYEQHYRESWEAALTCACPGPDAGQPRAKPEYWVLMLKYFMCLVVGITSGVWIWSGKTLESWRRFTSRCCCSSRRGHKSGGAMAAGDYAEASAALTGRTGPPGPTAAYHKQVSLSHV

T2: chick Sfrp1-myc (chick) (UniProt Q9DEQ4)
T2 sequence: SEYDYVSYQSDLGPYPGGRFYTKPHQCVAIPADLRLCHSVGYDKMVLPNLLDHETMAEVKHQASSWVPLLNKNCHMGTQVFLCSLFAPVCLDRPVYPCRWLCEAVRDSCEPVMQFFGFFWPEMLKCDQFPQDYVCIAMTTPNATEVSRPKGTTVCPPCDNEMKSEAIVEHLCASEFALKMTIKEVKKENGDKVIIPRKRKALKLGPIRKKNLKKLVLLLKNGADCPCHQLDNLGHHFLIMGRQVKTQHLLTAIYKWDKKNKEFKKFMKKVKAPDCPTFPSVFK

T3: chick Sfrp1NTR-myc (chick) (UniProt Q9DEQ4)
T3 sequence (chain, glycosylated (migrates as a smear due to post-translational glycosylation)): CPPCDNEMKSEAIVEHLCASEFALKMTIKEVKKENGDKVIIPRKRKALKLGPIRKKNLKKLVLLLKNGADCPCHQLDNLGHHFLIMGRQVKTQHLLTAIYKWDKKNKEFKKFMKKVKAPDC

B1: chick Sfrp1-myc (protein, UniProt Q9DEQ4 32-314)
chain: T2 sequence
B2: chick Sfrp1NTR-myc (domain or fragment, UniProt Q9DEQ4 186-306)
chain: T3 sequence (chain, glycosylated (migrates as a smear due to post-translational glycosylation))
modifications: glycosylated (migrates as a smear due to post-translational glycosylation)
B3: chick Wnt8c-HA (ligand, UniProt P51030 17-357)
chain: T1 sequence

Assays:
[1] = molecular target: mouse Fz5-HA (mouse) (UniProt Q9EQD0); test: co-IP; lysates of transfected HEK 293T cells (Fz-HA with Sfrp1-myc or its derivatives), lysis buffer 150 mM NaCl, 1% NP40, 50 mM Tris pH 8; precipitated with anti-HA, blotted with anti-myc
[2] = molecular target: T1, chick Wnt8c-HA (chick); test: co-IP; conditioned media of separately transfected HEK 293T cells mixed for 2 hours; precipitated with polyclonal anti-HA and Protein G-Sepharose, four washes with lysis buffer (150 mM NaCl, 1% NP40, 50 mM Tris pH 8); blotted with monoclonal anti-myc (9E10)
[3] = molecular target: T2, chick Sfrp1-myc (chick); test: co-IP; reverse immunoprecipitation: same mixed conditioned media precipitated with polyclonal anti-myc, blotted with monoclonal anti-HA
[4] = molecular target: T3, chick Sfrp1NTR-myc (chick); test: as above

Binder | binding [1] | binding [2] | binding [3] | binding [4]
B1 | binds | binds |  | 
B2 | no binding | binds |  | 
B3 |  |  | binds | binds
